Some of the results follow.
What follows are sequences tested against T1, OsWOX13 (Oryza sativa, UniProt Q5QMM3 1-267) (assay: protein-binding microarray (RPBM); PBS, 2% BSA, 51.3 ng/ul salmon testes DNA, 50 uM zinc acetate, 200 nM TF, 25 C, 1 h; high values mean tight binding). Settings: protein: recombinant; tags: N-terminal polyhistidine and DsRed monomer fusion (pET32a); label: CyDye5-dUTP incorporated in the synthesized complementary strand; 3' TTTTT single-stranded linker to array surface; dsDNA, one strand shown.
T1 sequence: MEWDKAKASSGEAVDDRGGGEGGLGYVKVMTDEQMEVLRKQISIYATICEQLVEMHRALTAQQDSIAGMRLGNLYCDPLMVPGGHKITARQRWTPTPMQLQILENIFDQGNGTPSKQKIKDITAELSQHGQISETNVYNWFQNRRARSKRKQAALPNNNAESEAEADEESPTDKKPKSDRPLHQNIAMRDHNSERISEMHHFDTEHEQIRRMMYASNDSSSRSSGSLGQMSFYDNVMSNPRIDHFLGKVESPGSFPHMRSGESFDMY
Summary of the method: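 A custom Agilent array was converted to double-stranded form by primer extension with Cy5-dUTP and blocked with 2% BSA. Protein at 200 nM in PBS with 2% BSA, salmon testes DNA and 50 µM zinc acetate was applied for 1 h at 25 °C, followed by washing. The proteins were polyhistidine–DsRed N-terminal fusions of transcription factors, expressed in E. coli BL21-CodonPlus and Ni–NTA-purified. The binding signal is per-feature fluorescence intensity (arbitrary units) from an Axon 4000B scanner.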

Sequence	binding signal
ATGAAGAAACTGTTGGTGATTTGACAAGTAGGCTTGGTTCCGGAGTCACCTAGTGCAG	6530 fluorescence intensity (a.u.)
TGCTTAAATTTTAAACCTCTGAATTAACAGTATGTAATACCGGAGTCACCTAGTGCAG	3510 fluorescence intensity (a.u.)
CCCGCTTGAATGGATGGCAATCAACACAAGGAACAGACCGCGGAGTCACCTAGTGCAG	13700 fluorescence intensity (a.u.)
TGTATGATTTGAATTGAGTGAAGAGTGACCGATCCGAGCTCGGAGTCACCTAGTGCAG	3700 fluorescence intensity (a.u.)
TGCCAAATTAATTTGTAACATATATCTTGGCAAGAAAATGCGGAGTCACCTAGTGCAG	27800 fluorescence intensity (a.u.)
AGTTTGTAATAATTAAAACCCAATCAATGATACGTCAATACGGAGTCACCTAGTGCAG	10300 fluorescence intensity (a.u.)
CGATAACTGGAGATAGAGGAGCGACAAGGCTTCCGGTGCTCGGAGTCACCTAGTGCAG	13000 fluorescence intensity (a.u.)
TTACATCAATTAGCTCACACTTCTGCAACACAATATTAGCCGGAGTCACCTAGTGCAG	6360 fluorescence intensity (a.u.)
CACTAATTAAGGGTGTCAAAGTGGACTTATTATTTTATCGCGGAGTCACCTAGTGCAG	29500 fluorescence intensity (a.u.)
ACTAATTTAGTATTATAAATATTACTATATTTGTTTATAACGGAGTCACCTAGTGCAG	10200 fluorescence intensity (a.u.)
GTTGGTGATAGACGATATAATTACGATCACCGAAAAGTGGCGGAGTCACCTAGTGCAG	31900 fluorescence intensity (a.u.)
GAGATTTTGTTATAAAGAGTTAATTATAACAAATCCAATGCGGAGTCACCTAGTGCAG	4620 fluorescence intensity (a.u.)
GATAAGATTATTTATGATATGATGATCACTTCAATATCTGCGGAGTCACCTAGTGCAG	9980 fluorescence intensity (a.u.)
ATATTCAATCTTAAATTTATAGTTGTGTGAGAAATTTTGTCGGAGTCACCTAGTGCAG	20800 fluorescence intensity (a.u.)
ATTGATTTTCTAGACCTGCCACTGATTATACATGCTCAGTCGGAGTCACCTAGTGCAG	26900 fluorescence intensity (a.u.)
GACTAATTTATGCATATGAATTCAGTTGCATTTCTGTGTTCGGAGTCACCTAGTGCAG	36300 fluorescence intensity (a.u.)
ATTTTAAATTTTAGTTATTTCTAAATTGTATTTCTATATGCGGAGTCACCTAGTGCAG	9830 fluorescence intensity (a.u.)
TCGAATAGATTTAGTTCCTTACTATCTATTTATAAGCGCCCGGAGTCACCTAGTGCAG	4140 fluorescence intensity (a.u.)
CTGTAGATTCTTTTAATTTTCATCATTGGATAATTCAACCCGGAGTCACCTAGTGCAG	4320 fluorescence intensity (a.u.)
CGATACTCCTAACACAAATTAGACAATCTACTCCGGTCAACGGAGTCACCTAGTGCAG	4520 fluorescence intensity (a.u.)
ACTCTTTTATTAGTGTGATTACTAGAAAATAATTATACTTCGGAGTCACCTAGTGCAG	5230 fluorescence intensity (a.u.)

Sequence	binding signal
CGGAAATGGAAATATATATATAGTAGTACTTCTGATCACACGGAGTCACCTAGTGCAG	3250 fluorescence intensity (a.u.)
GTGGGATTGTGATTTTGTTTGTAACTAGTTATGTATCCAACGGAGTCACCTAGTGCAG	12600 fluorescence intensity (a.u.)
ACTGGTAATTAATTTGTTGATACACTCAGTTTGGTAATGGCGGAGTCACCTAGTGCAG	47500 fluorescence intensity (a.u.)
AACTAATTGCACAGTTTGCATGTAAATCACGACACGAATACGGAGTCACCTAGTGCAG	20200 fluorescence intensity (a.u.)
AAGAGAACAAAATTTGATTACACAACGCACACTGTCAAAACGGAGTCACCTAGTGCAG	3180 fluorescence intensity (a.u.)
AGAATGATTTAATGTATTGCCATATGAGTGAAATGGGAGCCGGAGTCACCTAGTGCAG	29600 fluorescence intensity (a.u.)
CTTAATTAGTCTCAAAAGATTCGTCTCGCGGTTTCCACGCCGGAGTCACCTAGTGCAG	20500 fluorescence intensity (a.u.)
GTAGATGATTACAAACATAGGGGAATAACAATGGGAACGTCGGAGTCACCTAGTGCAG	15000 fluorescence intensity (a.u.)
AATAATTGTATTAGTATATGTAGGAGCTTGACACCCATGGCGGAGTCACCTAGTGCAG	35700 fluorescence intensity (a.u.)
CTAGCAGGTGATTATAAATCCAATTTTAAATCCATTTCGACGGAGTCACCTAGTGCAG	8670 fluorescence intensity (a.u.)
AAGATGAGTGATTAAGCATCAATTAAATCAAGACGACTAGCGGAGTCACCTAGTGCAG	31700 fluorescence intensity (a.u.)
CATATTGATGTTAATGAATCTAGAGATATATATCTATCTACGGAGTCACCTAGTGCAG	3520 fluorescence intensity (a.u.)
GTCGCGATCAGCTAATTAGCTTAGCTGCTAGCAGATGAATCGGAGTCACCTAGTGCAG	4760 fluorescence intensity (a.u.)
ACTATTCAAATTTAAATTATCATAAACCACGTTAACTTACCGGAGTCACCTAGTGCAG	22700 fluorescence intensity (a.u.)
GAGGAAAATAATTTGCACTATAGATTAATAATCAAAAGGCCGGAGTCACCTAGTGCAG	9470 fluorescence intensity (a.u.)
AGAGATCACTAATTATTTACGCATCAATTCGTCATTTCTTCGGAGTCACCTAGTGCAG	8060 fluorescence intensity (a.u.)
AGCTAGACAGAGACAGTAGACACACAGCGCGCGTCCGTTGCGGAGTCACCTAGTGCAG	6670 fluorescence intensity (a.u.)
ACAGCCCAATCAAACAGCATCCGGATATTTCATCCGAACCCGGAGTCACCTAGTGCAG	3650 fluorescence intensity (a.u.)
TTAATTTGCAAATTAACCACATTCGAATTTCTCTCTCTCTCGGAGTCACCTAGTGCAG	49600 fluorescence intensity (a.u.)
CAAACATCCAATCTTCATATTTGATTATTTGTCTCACTTCCGGAGTCACCTAGTGCAG	12400 fluorescence intensity (a.u.)
TTATGATTTAAGTTGAAATTTTCATATTAAATAAGTGCTACGGAGTCACCTAGTGCAG	22600 fluorescence intensity (a.u.)
